Laboratory results reported in the supplement of paper PMC6135742.
Structures can show the parent of a compound that is named as a salt. ± gives the standard deviation of the averaged measurements. In all, about 2,600 compounds were measured (“total cell number (DAPI+ nuclei) relative to DMSO vehicle control”: median about -1.4, lowest 2% from about -23 on). The list shows a part of the results.

Tested on: jimpy (Plp1 jimpy) mouse iPSC-derived oligodendrocyte progenitor cells
Assay: total cell number (DAPI+ nuclei) relative to DMSO vehicle control (SDs above negative control mean); higher = more surviving cells
Conditions: 10 µM; 3 days
Method: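 Primary phenotypic screen of >3,000 bioactive compounds (Selleck L1700 and Sigma LO1280 libraries) at a single dose of 10 µM. Compounds were added to jimpy (Plp1 mutant) mouse iPSC-derived OPCs at the start of thyroid hormone-induced oligodendrocyte differentiation, one well per compound in 384-well plates. After 3 days cells were stained for MBP, Sox10 and DAPI and imaged with an Operetta system. MBP+ oligodendrocyte number and total cell number were expressed as the number of SDs above the mean of the DMSO negative control on the same plate (n=16 control wells per plate). Hits were defined as >=4 SD for oligodendrocytes and >=2 SD for total cells.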

SMILES | total cell number
COc1cc(C(=O)NC2CCCNC2)cc(OC)c1OC (configuration not stated) [Troxipide] | -0.832
C[C@]12CC[C@@H]3c4ccc(O)cc4CC[C@H]3[C@@H]1CCC2=O [Estrone] | 5.32 ± 10
Nc1ncnc2c1c(-c1cnc3[nH]ccc3c1)nn2C1CCCC1 | -11.7
COc1ccc2cc1Oc1ccc(cc1)C[C@H]1c3cc(c(OC)cc3CCN1C)Oc1c(OC)c(OC)cc3c1[C@H](C2)N(C)CC3 [Tetrandrine] | -12.9
COc1cc(OC)cc(-c2cc3cnc(N)nc3nc2NC(=O)NC(C)(C)C)c1 | -5.24
O=P(O)(O)C(Cl)(Cl)P(=O)(O)O [Clodronic acid] | -0.765
CCCCOc1cc(C(=O)NCCN(CC)CC)c2ccccc2n1 [Dibucaine HCl] | -0.446
N#C[C@@H]1C[C@@H]2C[C@@H]2N1C(=O)[C@@H](N)C12CC3CC(CC(O)(C3)C1)C2 [Saxagliptin] | 2.1
CCS(=O)(=O)CCn1c([N+](=O)[O-])cnc1C [Tinidazole] | 0.55
O=C1CCc2cc(OCCCCc3nnnn3C3CCCCC3)ccc2N1 [Cilostazol] | 1.61 ± 3.9
C[C@@]12C[C@@]3(O)O[C@@H](O1)[C@]1(COC(=O)c4ccccc4)[C@H]3C[C@@]12O[C@@H]1O[C@H](CO)[C@@H](O)[C@H](O)[C@H]1O [Paeoniflorin] | -1.48
Cc1ccccc1-n1c(Cn2nc(-c3cccc(O)c3)c3c(N)ncnc32)nc2cccc(C)c2c1=O | -10.8
COc1cc(Nc2nc3ccccc3nc2NS(=O)(=O)c2ccc(NC(=O)c3ccc(C)c(OC)c3)cc2)cc(OC)c1 | -0.366
CCC1=C(C)CN(C(=O)NCCc2ccc(S(=O)(=O)NC(=O)N[C@H]3CC[C@H](C)CC3)cc2)C1=O [Glimepiride] | 1.17
Cc1coc2c1C(=O)C(=O)c1c-2ccc2c(C)cccc12 [Tanshinone I] | 0.0128
CC1(C)NC(=O)N(c2ccc([N+](=O)[O-])c(C(F)(F)F)c2)C1=O [Nilutamide] | -1.93
Cc1[nH]c(/C=C2\C(=O)Nc3ccc(S(=O)(=O)N(C)c4cccc(Cl)c4)cc32)c(C)c1C(=O)N1CCN(C)CC1 | -26.7
O=C(/C=C\n1cnc(-c2cc(C(F)(F)F)cc(C(F)(F)F)c2)n1)NNc1cnccn1 | -13.4
CN(C)Cc1ccc(-c2nc3cccc4c3n2CCNC4=O)cc1 | -3.3
CC(C)C[C@H](NC(=O)[C@H]1O[C@@H]1C(=O)O)C(=O)NCCCCN=C(N)N | -3.4 ± 0.35
COC(=O)[C@@H]1[C@H]2C[C@H]3c4[nH]c5ccccc5c4CCN3C[C@@H]2CC[C@@H]1O [Yohimbine hydrochloride] | -2.94
COC(=O)[C@@H]1[C@H]2C[C@H]3c4[nH]c5ccccc5c4CCN3C[C@@H]2CC[C@@H]1O [Yohimbine HCl] | -6.96
C=C(C)[C@@H]1CC=C(C(=O)O)CC1 [(-)-Perillic acid] | -1.68
Oc1c2ccccc2c2c3c(cccc13)N=N2 | -6.28 ± 3.6

SMILES | total cell number
Cc1nc(NC(=O)N2CCC[C@H]2C(N)=O)sc1-c1ccnc(C(C)(C)C(F)(F)F)c1 | -10.3
O=S(=O)(O)CCS [Mesna] | -2.3
CCCCCCCCCCC/C=C\C(C)(C)/C=C\CCCC(=O)O [7,7-Dimethyl-(5Z,8Z)-eicosadienoic acid] | 0.0609
CN(C)C1CCN(C(=O)c2ccc(NC(=O)Nc3ccc(-c4nc(N5CCOCC5)nc(N5CCOCC5)n4)cc3)cc2)CC1 | -10.8
C[C@@H]1O[C@@H](O[C@H]2[C@H](Oc3cc(O)c(C(=O)CCc4ccc(O)cc4)c(O)c3)O[C@H](CO)[C@@H](O)[C@@H]2O)[C@H](O)[C@H](O)[C@H]1O [Naringin Dihydrochalcone] | -0.984
CCCCNC(=O)NS(=O)(=O)c1ccc(C)cc1 [Tolbutamide] | -0.0359 ± 1.1
CCCS(=O)(=O)Nc1ccc(F)c(C(=O)c2c[nH]c3ncc(-c4ccc(Cl)cc4)cc23)c1F [Vemurafenib (PLX4032, RG7204)] | 3.65
O=C(Nc1c(Cl)cncc1Cl)c1ccc(OC(F)F)c(OCC2CC2)c1 [Roflumilast] | -1.42
CCOC(=O)OC(C)OC1=C(C(=O)Nc2ccccn2)N(C)S(=O)(=O)c2ccccc21 (configuration not stated) [Ampiroxicam] | -0.95
CC(=O)N[C@H]1[C@H]([C@H](O)[C@H](O)CO)OC(C(=O)O)=C[C@@H]1NC(=N)N [Zanamivir] | -0.366 ± 1.4
CCC(=O)O[C@]1(C(=O)CCl)[C@@H](C)C[C@H]2[C@@H]3C[C@H](F)C4=CC(=O)C=C[C@]4(C)[C@@]3(F)[C@@H](O)C[C@@]21C [Halobetasol Propionate] | 10.4
CN(C)Cc1cccc(N/C(=C2\C(=O)Nc3cc(C(N)=O)ccc32)c2ccccc2)c1 | -14.3
CCN1CC(CCN2CCOCC2)C(c2ccccc2)(c2ccccc2)C1=O (configuration not stated) [Doxapram HCl] | 2
CC(=O)OCC(=O)[C@@]12N=C(C)O[C@@H]1C[C@H]1[C@@H]3CCC4=CC(=O)C=C[C@]4(C)[C@H]3[C@@H](O)C[C@@]12C [Deflazacort] | 3.88
C[C@@H](CN1CC(=O)NC(=O)C1)N1CC(=O)NC(=O)C1 [Dexrazoxane HCl (ICRF-187, ADR-529)] | -11.9
Cc1nc2n(c(=O)c1CCN1CCC(c3noc4cc(F)ccc34)CC1)CCCC2 [Risperidone] | -2.69
CNCCC(Oc1ccc(C(F)(F)F)cc1)c1ccccc1 (configuration not stated) [Fluoxetine HCl] | -16.5
CNCCC(Oc1ccc(C(F)(F)F)cc1)c1ccccc1 (configuration not stated) [Fluoxetine hydrochloride] | -7.96
N=C(N)NCCC[C@H](N)C(=O)O [L-Arginine] | -1.54
COc1cc(C(=O)NS(=O)(=O)c2ccccc2C)ccc1Cc1cn(C)c2ccc(NC(=O)OC3CCCC3)cc12 [Zafirlukast] | 0.455
Cc1cc(C2CCCCC2)n(O)c(=O)c1 [Ciclopirox ethanolamine] | -8.93
Cc1cc(C2CCCCC2)n(O)c(=O)c1 [Ciclopirox] | -10.9
CC1=C(C(=O)OC(C)C)C(c2cccc([N+](=O)[O-])c2)C(C(=O)OC2CN(C(c3ccccc3)c3ccccc3)C2)=C(N)N1 (configuration not stated) [Azelnidipine] | -12.3
